Some of the results follow.
target: T1, MBP-FoxP1dN (Mus musculus, UniProt P58462 326-579); assay: PD-seq (MBP pull-down with sequencing); 20 mM Tris-HCl pH 7.5, 100 mM NaCl, 1.5 mM MgCl2, 0.4 uM protein, 0.1 uM dsDNA library, 30 min, room temperature, amylose pull-down; high values mean tight binding; details: protein: recombinant; tags: His6-MBP; chain copies: 2; dsDNA, one strand shown
T1 sequence: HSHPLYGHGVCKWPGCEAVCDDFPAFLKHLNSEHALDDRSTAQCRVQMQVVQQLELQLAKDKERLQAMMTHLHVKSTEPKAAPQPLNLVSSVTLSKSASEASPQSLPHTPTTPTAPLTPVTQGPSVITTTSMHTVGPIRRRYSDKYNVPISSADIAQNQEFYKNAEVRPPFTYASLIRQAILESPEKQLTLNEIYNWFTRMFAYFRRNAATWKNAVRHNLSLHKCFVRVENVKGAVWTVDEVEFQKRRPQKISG
Procedure, shortened: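 E. coli-expressed mouse FoxP3 or FoxP1 fragment, N-terminus removed and tagged with His6-MBP, was used at 0.4 µM against 0.1 µM of a Klenow-filled degenerate double-stranded DNA library. After 30 min at room temperature in Tris pH 7.5 buffer with NaCl and MgCl2, complexes were pulled down on amylose resin and washed three times. Binding is pull-down over input reads-per-million enrichment from pooled replicates of the proteinase K-released, PCR-barcoded, Illumina-sequenced DNA.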

Row | Sequence | binding signal
1 | GATGATTGTTCTCCCAGCTGATGAATTGACTGGGTCGAGTAAACAAATTTTCCTAATCTTTCTGTTCAAGCGCCATCTAC | 0.86 RPM ratio (pull-down/input)
2 | GATGATTGTTCTCCCAGCTGATGAATTGCAAGAGTCGAGTAAACAAATTTTCCTAATCTTTCTGTTCAAGCGCCATCTAC | 1.05 RPM ratio (pull-down/input)
3 | GATGATTGTTCTCCCAGCTGATGAATTGACCACGTCGAGTAAACAAATTTTCCTAATCTTTCTGTTCAAGCGCCATCTAC | 0.941 RPM ratio (pull-down/input)
4 | GATGATTGTTCTCCCAGCTGATGAATTAGCGACCTCGAGTAAACAAATTTTCCTAATCTTTCTGTTCAAGCGCCATCTAC | 0.762 RPM ratio (pull-down/input)
5 | GATGATTGTTCTCCCAGCTGATGAATTCTCGGAATCGAGTAAACAAATTTTCCTAATCTTTCTGTTCAAGCGCCATCTAC | 0.939 RPM ratio (pull-down/input)
6 | GATGATTGTTCTCCCAGCTGATGAATTATCCTCTTCGAGTAAACAAATTTTCCTAATCTTTCTGTTCAAGCGCCATCTAC | 0.975 RPM ratio (pull-down/input)
7 | GATGATTGTTCTCCCAGCTGATGAATTTAATTTGTCGAGTAAACAAATTTTCCTAATCTTTCTGTTCAAGCGCCATCTAC | 1.25 RPM ratio (pull-down/input)
8 | GATGATTGTTCTCCCAGCTGATGAATTCTCAACCTCGAGTAAACAAATTTTCCTAATCTTTCTGTTCAAGCGCCATCTAC | 0.795 RPM ratio (pull-down/input)
9 | GATGATTGTTCTCCCAGCTGATGAATTCACCTGTTCGAGTAAACAAATTTTCCTAATCTTTCTGTTCAAGCGCCATCTAC | 0.849 RPM ratio (pull-down/input)
10 | GATGATTGTTCTCCCAGCTGATGAATTCAGTTAGTCGAGTAAACAAATTTTCCTAATCTTTCTGTTCAAGCGCCATCTAC | 0.883 RPM ratio (pull-down/input)
11 | GATGATTGTTCTCCCAGCTGATGAATTTAGACTGTCGAGTAAACAAATTTTCCTAATCTTTCTGTTCAAGCGCCATCTAC | 0.976 RPM ratio (pull-down/input)
12 | GATGATTGTTCTCCCAGCTGATGAATTGGCTTAATCGAGTAAACAAATTTTCCTAATCTTTCTGTTCAAGCGCCATCTAC | 0.938 RPM ratio (pull-down/input)
13 | GATGATTGTTCTCCCAGCTGATGAATTTGGCGGATCGAGTAAACAAATTTTCCTAATCTTTCTGTTCAAGCGCCATCTAC | 0.847 RPM ratio (pull-down/input)
14 | GATGATTGTTCTCCCAGCTGATGAATTCTTATTATCGAGTAAACAAATTTTCCTAATCTTTCTGTTCAAGCGCCATCTAC | 1.6 RPM ratio (pull-down/input)
15 | GATGATTGTTCTCCCAGCTGATGAATTGTATGTGTCGAGTAAACAAATTTTCCTAATCTTTCTGTTCAAGCGCCATCTAC | 1.37 RPM ratio (pull-down/input)
16 | GATGATTGTTCTCCCAGCTGATGAATTTTCACCATCGAGTAAACAAATTTTCCTAATCTTTCTGTTCAAGCGCCATCTAC | 1.03 RPM ratio (pull-down/input)

Row | Sequence | binding signal
17 | GATGATTGTTCTCCCAGCTGATGAATTGTATCATTCGAGTAAACAAATTTTCCTAATCTTTCTGTTCAAGCGCCATCTAC | 1.26 RPM ratio (pull-down/input)
18 | GATGATTGTTCTCCCAGCTGATGAATTTGATTCCTCGAGTAAACAAATTTTCCTAATCTTTCTGTTCAAGCGCCATCTAC | 0.839 RPM ratio (pull-down/input)
19 | GATGATTGTTCTCCCAGCTGATGAATTAGCATGGTCGAGTAAACAAATTTTCCTAATCTTTCTGTTCAAGCGCCATCTAC | 0.958 RPM ratio (pull-down/input)
20 | GATGATTGTTCTCCCAGCTGATGAATTAGGTAAGTCGAGTAAACAAATTTTCCTAATCTTTCTGTTCAAGCGCCATCTAC | 0.918 RPM ratio (pull-down/input)
21 | GATGATTGTTCTCCCAGCTGATGAATTGAGGTCATCGAGTAAACAAATTTTCCTAATCTTTCTGTTCAAGCGCCATCTAC | 0.884 RPM ratio (pull-down/input)
22 | GATGATTGTTCTCCCAGCTGATGAATTCTCATTATCGAGTAAACAAATTTTCCTAATCTTTCTGTTCAAGCGCCATCTAC | 0.971 RPM ratio (pull-down/input)
23 | GATGATTGTTCTCCCAGCTGATGAATTCACACGCTCGAGTAAACAAATTTTCCTAATCTTTCTGTTCAAGCGCCATCTAC | 0.978 RPM ratio (pull-down/input)
24 | GATGATTGTTCTCCCAGCTGATGAATTCCCTCGGTCGAGTAAACAAATTTTCCTAATCTTTCTGTTCAAGCGCCATCTAC | 0.759 RPM ratio (pull-down/input)
25 | GATGATTGTTCTCCCAGCTGATGAATTGATGGGCTCGAGTAAACAAATTTTCCTAATCTTTCTGTTCAAGCGCCATCTAC | 0.869 RPM ratio (pull-down/input)
26 | GATGATTGTTCTCCCAGCTGATGAATTATTCTTCTCGAGTAAACAAATTTTCCTAATCTTTCTGTTCAAGCGCCATCTAC | 1.03 RPM ratio (pull-down/input)
27 | GATGATTGTTCTCCCAGCTGATGAATTATGGAGTTCGAGTAAACAAATTTTCCTAATCTTTCTGTTCAAGCGCCATCTAC | 0.883 RPM ratio (pull-down/input)
28 | GATGATTGTTCTCCCAGCTGATGAATTCAAGTTTTCGAGTAAACAAATTTTCCTAATCTTTCTGTTCAAGCGCCATCTAC | 1.01 RPM ratio (pull-down/input)
29 | GATGATTGTTCTCCCAGCTGATGAATTGACAACATCGAGTAAACAAATTTTCCTAATCTTTCTGTTCAAGCGCCATCTAC | 2.29 RPM ratio (pull-down/input)
30 | GATGATTGTTCTCCCAGCTGATGAATTGCCAATTTCGAGTAAACAAATTTTCCTAATCTTTCTGTTCAAGCGCCATCTAC | 1.04 RPM ratio (pull-down/input)
31 | GATGATTGTTCTCCCAGCTGATGAATTCAAGAGGTCGAGTAAACAAATTTTCCTAATCTTTCTGTTCAAGCGCCATCTAC | 0.817 RPM ratio (pull-down/input)

— publication PMC12820563, “FoxP3 forms a head-to-head dimer in vivo and stabilizes its multimerization on adjacent microsatellites”
